Assay [1] relates to RAW-Dual. Description: NF-kB SEAP reporter activity, fold change vs agonist alone; cytotoxicity flag (confluency mask): not cytotoxic; higher = enhanced NF-kB activity. The method in brief:
(§1)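 Cytotoxic wells were those whose IncuCyte confluency was below 70% of agonist controls in both mask sets. The cells were RAW-Dual macrophages at 50,000 cells/well in DMEM on 384-well plates, dosed with 50 nL of library stock by pin tool, stimulated with a PRR agonist 1 h later, and kept at 37 °C, 5% CO2 for 20 hours. IRF and NF-κB reporter activity, as fold change over agonist-alone wells, came from supernatant read by QuantiLuc luminescence and QuantiBlue absorbance, respectively.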

The test system of assay [2] is RAW-Dual. Description: NF-kB SEAP reporter activity, fold change vs agonist alone; higher = enhanced NF-kB activity. The essentials:
as §1

In assay [3] the test system is RAW-Dual. Description: NF-kB SEAP reporter activity, fold change vs agonist alone; cytotoxicity flag (confluency mask): cytotoxic (confluency <70% of control); higher = enhanced NF-kB activity. The essentials:
as §1

[4] abbreviates: agonist: ODN 1826 (TLR9) 0.5 ug/mL.
[5] abbreviates: agonist: Pam2CSK4 (TLR2/6) 0.1 ug/mL.
[6] abbreviates: agonist: Pam3CSK4 (TLR2/1) 0.1 ug/mL.
Where [7] appears, read: library stock concentration (final ~1000-fold dilution): 10 mM, cytotoxicity flag (confluency mask): not cytotoxic, agonist: Imiquimod (TLR7) […].
Setting [8] is: library stock concentration (final ~1000-fold dilution): 10 mM, cytotoxicity flag (confluency mask): not cytotoxic, agonist: MPLA (TLR4) […].

The full ranking holds about 2,900 compounds; the median of “NF-kB SEAP reporter activity, fold change vs agonist alone” is about 0.99, and the highest 2% start at about 2.6. Some of the results follow.

For `COc1cc(/C=C/C(=O)/C=C(O)/C=C/c2ccc(O)c(OC)c2)ccc1O` (library stock concentration (final ~1000-fold dilution): 10 mM), the “NF-kB SEAP reporter activity” value in the assay on RAW-Dual [1] (agonist: LPS (TLR4) 0.1 ug/mL) stood at 0.794; with RAW-Dual [1] (setting [4]) it was 0.82; with RAW-Dual [1] (setting [5]), 1.16; in the assay on RAW-Dual [1] (setting [6]) it was 1.2.
In the case of `COc1cc(/C=C/C(=O)/C=C(O)/C=C/c2ccc(O)c(OC)c2)ccc1O`, the “NF-kB SEAP reporter activity” value with RAW-Dual [2] (setting [7]) was 0.614; with RAW-Dual [2] (setting [8]), 0.892.
As for `COC(=O)C1=C(C)NC(C)=C(C(=O)OC(C)(C)CN(C)CCC(c2ccccc2)c2ccccc2)C1c1cccc([N+](=O)[O-])c1` (centres undefined) (library stock concentration (final ~1000-fold dilution): 10 mM), the “NF-kB SEAP reporter activity” value was found to be 1.02 with RAW-Dual [1] (agonist: LPS (TLR4) 0.1 ug/mL), 0.271 in the assay with RAW-Dual [1] (setting [4]), 0.383 in the assay on RAW-Dual [1] (setting [5]) and 0.287 in the assay on RAW-Dual [1] (setting [6]).
On to `COC(=O)C1=C(C)NC(C)=C(C(=O)OC(C)(C)CN(C)CCC(c2ccccc2)c2ccccc2)C1c1cccc([N+](=O)[O-])c1` (centres undefined), for which the “NF-kB SEAP reporter activity” value in the assay on RAW-Dual [2] (setting [7]) was determined as 0.627; with RAW-Dual [2] (setting [8]) it was 1.3.
For `CCCNC(=O)c1cn2ncnc(Nc3cc(C(=O)NC4CC4)ccc3C)c2c1C` (library stock concentration (final ~1000-fold dilution): 10 mM), the “NF-kB SEAP reporter activity” value came out at 1.27 with RAW-Dual [1] (agonist: LPS (TLR4) 0.1 ug/mL), 0.685 in the assay with RAW-Dual [1] (setting [4]), 0.417 in the assay with RAW-Dual [1] (setting [5]) and 0.467 in the assay with RAW-Dual [1] (setting [6]).
As for `CCCNC(=O)c1cn2ncnc(Nc3cc(C(=O)NC4CC4)ccc3C)c2c1C`, the “NF-kB SEAP reporter activity” value in the assay on RAW-Dual [2] (setting [7]) worked out at 0.719; in the assay with RAW-Dual [2] (setting [8]), 1.01.
With `CC1CC2C3CCC4=CC(=O)C=CC4(C)C3(F)C(O)CC2(C)C1(O)C(=O)COP(=O)(O)O` (centres undefined) (library stock concentration (final ~1000-fold dilution): 10 mM water), the “NF-kB SEAP reporter activity” value in the assay with RAW-Dual [1] (agonist: LPS (TLR4) 0.1 ug/mL) was found to be 1.42; in the assay on RAW-Dual [1] (setting [4]), 1.53; with RAW-Dual [1] (setting [5]) it was 2; in the assay on RAW-Dual [1] (setting [6]), 1.79.
Take `CC1CC2C3CCC4=CC(=O)C=CC4(C)C3(F)C(O)CC2(C)C1(O)C(=O)COP(=O)(O)O` (centres undefined): the “NF-kB SEAP reporter activity” value in the assay with RAW-Dual [2] (library stock concentration (final ~1000-fold dilution): 10 mM water, cytotoxicity flag (confluency mask): not cytotoxic, agonist: Imiquimod (TLR7) […]) worked out at 1.19; with RAW-Dual [2] (library stock concentration (final ~1000-fold dilution): 10 mM water, cytotoxicity flag (confluency mask): not cytotoxic, agonist: MPLA (TLR4) […]) it was 1.17.
Turning to `O=C(Nc1cccnc1)c1cc(-c2ccnc(F)c2)ccc1OCc1ccccc1` (library stock concentration (final ~1000-fold dilution): 10 mM), the “NF-kB SEAP reporter activity” value in the assay with RAW-Dual [1] (agonist: LPS (TLR4) 0.1 ug/mL) is 1.6; with RAW-Dual [1] (setting [4]), 0.937; with RAW-Dual [1] (setting [5]), 1.1; with RAW-Dual [1] (setting [6]), 1.32.
On to `O=C(Nc1cccnc1)c1cc(-c2ccnc(F)c2)ccc1OCc1ccccc1`, for which the “NF-kB SEAP reporter activity” value with RAW-Dual [2] (setting [7]) is 1.08; with RAW-Dual [2] (setting [8]), 1.12.
For `CSCC(N)C(=O)O` (centres undefined), in that order: 0.816 and 0.97.
Turning to `CSCC(N)C(=O)O` (centres undefined) (library stock concentration (final ~1000-fold dilution): 10 mM), the “NF-kB SEAP reporter activity” value was 1.3 in the assay on RAW-Dual [1] (agonist: LPS (TLR4) 0.1 ug/mL), 1.03 with RAW-Dual [1] (setting [4]), 1.12 with RAW-Dual [1] (setting [5]) and 1.08 with RAW-Dual [1] (setting [6]).
For the compound `CCCCc1oc2ccc(NS(C)(=O)=O)cc2c1C(=O)c1ccc(OCCCN(CCCC)CCCC)cc1` (library stock concentration (final ~1000-fold dilution): 10 mM), the “NF-kB SEAP reporter activity” value was 0.456 in the assay with RAW-Dual [3] (agonist: LPS (TLR4) 0.1 ug/mL), 0.256 in the assay with RAW-Dual [3] (setting [4]), 0.38 with RAW-Dual [3] (setting [5]) and 0.249 with RAW-Dual [3] (setting [6]).
Regarding `CCCCc1oc2ccc(NS(C)(=O)=O)cc2c1C(=O)c1ccc(OCCCN(CCCC)CCCC)cc1`, the “NF-kB SEAP reporter activity” value was determined as 2.27 in the assay with RAW-Dual [2] (library stock concentration (final ~1000-fold dilution): 10 mM, cytotoxicity flag (confluency mask): cytotoxic (confluency <70% of control), agonist: Imiquimod (TLR7) […]) and 1.17 in the assay on RAW-Dual [2] (library stock concentration (final ~1000-fold dilution): 10 mM, cytotoxicity flag (confluency mask): cytotoxic (confluency <70% of control), agonist: MPLA (TLR4) […]).
For `COc1cccc2c1C(=O)c1c(O)c3c(c(O)c1C2=O)CC(O)(C(=O)CO)CC3OC1CC(N)C(O)C(C)O1` (centres undefined), the “NF-kB SEAP reporter activity” value with RAW-Dual [2] (setting [7]) worked out at 0.2; in the assay with RAW-Dual [2] (setting [8]), 0.213.
With `COc1cccc2c1C(=O)c1c(O)c3c(c(O)c1C2=O)CC(O)(C(=O)CO)CC3OC1CC(N)C(O)C(C)O1` (centres undefined) (library stock concentration (final ~1000-fold dilution): 10 mM), the “NF-kB SEAP reporter activity” value was found to be 0.284 in the assay with RAW-Dual [1] (agonist: LPS (TLR4) 0.1 ug/mL), 0.184 in the assay with RAW-Dual [1] (setting [4]), 0.0946 in the assay on RAW-Dual [1] (setting [5]) and 0.139 in the assay with RAW-Dual [1] (setting [6]).
The like results for `COc1cc(Nc2c(C#N)cnc3cc(OCCCN4CCN(C)CC4)c(OC)cc23)c(Cl)cc1Cl` (library stock concentration (final ~1000-fold dilution): 10 mM) were, in that order, 1.62, 1.94, 1.45 and 1.77.
As to `COc1cc(Nc2c(C#N)cnc3cc(OCCCN4CCN(C)CC4)c(OC)cc23)c(Cl)cc1Cl`, the “NF-kB SEAP reporter activity” value is 1.84 in the assay on RAW-Dual [2] (setting [7]) and 1.51 with RAW-Dual [2] (setting [8]).
Regarding `Clc1ccc(N/N=C(\c2ccccc2)c2ccccn2)nc1`, the figures for the “NF-kB SEAP reporter activity” value with RAW-Dual [2] (setting [7]) and in the assay on RAW-Dual [2] (setting [8]) were 1.5 and 2.77, respectively.
On to `Clc1ccc(N/N=C(\c2ccccc2)c2ccccn2)nc1` (library stock concentration (final ~1000-fold dilution): 10 mM), for which the “NF-kB SEAP reporter activity” value with RAW-Dual [1] (agonist: LPS (TLR4) 0.1 ug/mL) turned out to be 4.59; with RAW-Dual [1] (setting [4]), 1.18; with RAW-Dual [1] (setting [5]), 0.556; in the assay on RAW-Dual [1] (setting [6]), 1.76.
With `CCC1(O)CC2CN(CCc3c([nH]c4ccccc34)C(C(=O)OC)(c3cc4c(cc3OC)N(C=O)C3C(O)(C(=O)OC)C(OC(C)=O)C5(CC)C=CCN6CCC43C65)C2)C1.O=S(=O)(O)O` (centres undefined) (library stock concentration (final ~1000-fold dilution): 10 mM), the “NF-kB SEAP reporter activity” value in the assay on RAW-Dual [1] (agonist: LPS (TLR4) 0.1 ug/mL) came to 5.34; in the assay with RAW-Dual [1] (setting [4]), 3.28.
Regarding `CC1CC(=O)Nc2cccc(-c3ccc4c(c3)c(-c3cnn(C)c3)nn4C)c2N1` (centres undefined) (library stock concentration (final ~1000-fold dilution): 10 mM), the “NF-kB SEAP reporter activity” value came out at 3.26 in the assay with RAW-Dual [1] (agonist: LPS (TLR4) 0.1 ug/mL), 2.08 in the assay with RAW-Dual [1] (setting [4]), 0.673 in the assay with RAW-Dual [1] (setting [5]) and 1.28 in the assay with RAW-Dual [1] (setting [6]).
On to `CC1CC(=O)Nc2cccc(-c3ccc4c(c3)c(-c3cnn(C)c3)nn4C)c2N1` (centres undefined), for which the “NF-kB SEAP reporter activity” value was found to be 1.46 in the assay on RAW-Dual [2] (setting [7]) and 2.15 with RAW-Dual [2] (setting [8]).
As for `Cc1ccc(C(=O)C(C)CN2CCCCC2)cc1.Cl` (centres undefined) (library stock concentration (final ~1000-fold dilution): 10 mM), the “NF-kB SEAP reporter activity” value stood at 1.09 with RAW-Dual [1] (agonist: LPS (TLR4) 0.1 ug/mL), 0.891 with RAW-Dual [1] (setting [4]), 1.04 with RAW-Dual [1] (setting [5]) and 1.06 with RAW-Dual [1] (setting [6]).
Turning to `Cc1ccc(C(=O)C(C)CN2CCCCC2)cc1.Cl` (centres undefined), the “NF-kB SEAP reporter activity” value is 0.909 with RAW-Dual [2] (setting [7]) and 1.06 with RAW-Dual [2] (setting [8]).
For the compound `CC(C)(C)c1nc(-c2cccc(NS(=O)(=O)c3c(F)cccc3F)c2F)c(-c2ccnc(N)n2)s1.CS(=O)(=O)O` (library stock concentration (final ~1000-fold dilution): 10 mM), the results for the “NF-kB SEAP reporter activity” value with RAW-Dual [1] (agonist: LPS (TLR4) 0.1 ug/mL) and in the assay on RAW-Dual [1] (setting [4]) were 3.17 and 3.05, respectively.
As to `O=C(c1ccc(F)cc1)C1CCN(CCn2c(=O)[nH]c3ccccc3c2=O)CC1` (library stock concentration (final ~1000-fold dilution): 2 mM), the “NF-kB SEAP reporter activity” value is 1.41 in the assay with RAW-Dual [1] (agonist: LPS (TLR4) 0.1 ug/mL), 1.11 in the assay on RAW-Dual [1] (setting [4]), 1.08 in the assay with RAW-Dual [1] (setting [5]) and 0.948 in the assay with RAW-Dual [1] (setting [6]).
With `O=C(c1ccc(F)cc1)C1CCN(CCn2c(=O)[nH]c3ccccc3c2=O)CC1`, the “NF-kB SEAP reporter activity” value in the assay with RAW-Dual [2] (library stock concentration (final ~1000-fold dilution): 2 mM, cytotoxicity flag (confluency mask): not cytotoxic, agonist: Imiquimod (TLR7) […]) is 0.664; with RAW-Dual [2] (library stock concentration (final ~1000-fold dilution): 2 mM, cytotoxicity flag (confluency mask): not cytotoxic, agonist: MPLA (TLR4) […]) it was 1.06.
As for `Nc1nccc(Oc2ccc(NC(=O)c3c[nH]cc(-c4ccc(F)cc4)c3=O)cc2F)c1Cl`, the results for the “NF-kB SEAP reporter activity” value in the assay with RAW-Dual [2] (setting [7]) and in the assay on RAW-Dual [2] (setting [8]) were 0.254 and 0.313, respectively.
For the compound `Nc1nccc(Oc2ccc(NC(=O)c3c[nH]cc(-c4ccc(F)cc4)c3=O)cc2F)c1Cl` (library stock concentration (final ~1000-fold dilution): 10 mM), the “NF-kB SEAP reporter activity” value came to 0.237 with RAW-Dual [1] (agonist: LPS (TLR4) 0.1 ug/mL), 0.239 in the assay on RAW-Dual [1] (setting [4]), 0.0785 with RAW-Dual [1] (setting [5]) and 0.188 with RAW-Dual [1] (setting [6]).
For `C#CCNC1CCc2ccccc21` (centres undefined) (library stock concentration (final ~1000-fold dilution): 10 mM), in that order: 1.06, 0.931, 1.04 and 1.08.
As for `C#CCNC1CCc2ccccc21` (centres undefined), the “NF-kB SEAP reporter activity” value in the assay with RAW-Dual [2] (setting [7]) came out at 0.916; in the assay with RAW-Dual [2] (setting [8]), 1.14.

Values taken from the supplement of paper PMC10037445.
